Data published in publication PMC12136788.
Numbering of substitutions follows the chain as printed. Some of the results follow.

B1: 134301280_134303707_352_3pUTR_ENSG00000028839_ENST00000237264|human|control|control (ssRNA)
RNA: GGGAGUUCUACAGUCCGACGAUCUUUCCAACAUCACGUUUAUAAAUUACAUUUGCUCCUUCCAAAGCAAUCUUCCUUAAGUUUAAAUGACAUCUUGUUCUAAAAACACAGACUACAUUUGUAAUUAGAAUGUCCAAUGCAACACAACAGAGGAUUGAGCAUCA
B2: chr5:77764768:77764769:+_ENSMUSG00000029250_ENSMUST00000031167|mus_mus|motif|central (ssRNA)
RNA: GGGAGUUCUACAGUCCGACGAUCGACUCCAAGAAUCAUUGAUGGGUGAAUCUCACAGUGGGUGUAGGUAGAACAAUAAGCGGCUUCCUUCUCCUGCAAAUCAUCUGGAGUCAUUGCAAGCAUCACGGUCUCCUCUUCCAGGGUCAACAGAGGAUUGAGCAUCA
B3: chr7:56126341:56126342:+_ENSG00000146731_ENST00000540286|hu_mus|hu_hu_hu_mus_True|18_68 (ssRNA)
RNA: GGGAGUUCUACAGUCCGACGAUCCAUGUUUCUCCUCUUGGCUCUGCGCAGAGCUACGAUCCCUUCUUUUGAAAGAGCAUCUAAGGAAAAGGGGUCAAUCCCCUUUUGAUUAAUAACAACAAAUCCUUUAUCUGAGUCACCACACAACAGAGGAUUGAGCAUCA
B4: chr1:169100823:169100824:+_ENSG00000143153_ENST00000367816|hu_hu|FALSE|FALSE (ssRNA)
RNA: GGGAGUUCUACAGUCCGACGAUCUUGUUCAAGACUAGUAGGUUUUUGUUUUUGUAUCUUUUUUUAACUUAUUAAAUGGCUAGUGGGAAAGAUUUGUGCUUGUGAUCAGCUCUUAACUUCAAUUUUUACAUCAAAACGUCCCUGCAACAGAGGAUUGAGCAUCA
B5: chr4:57314706:57314707:+_ENSG00000128050_ENST00000264221|hu_mus|hu_hu_hu_mus_True|1_48 (ssRNA)
RNA: GGGAGUUCUACAGUCCGACGAUCCAGAAUUUCAAAAAUAGCUUGUGUGGCAUGACUCAUGAUGUCCACUUCAGUCUGCCCUAUAACAAGUCCAGCAAAACAGAAUUUUGCAGCAAUGAGUUGCUCCUCAGACCACUGUGGGUCCAACAGAGGAUUGAGCAUCA
B6: 147026393_147026513_1702_CDS_ENSG00000102081_ENST00000218200|human|control|control (ssRNA)
RNA: GGGAGUUCUACAGUCCGACGAUCCCGUCCGUCUCCUCUGCGCAGGAAGCUCUCCCUCUCUUCCUCUGUUGGAGCUAAUGACCAAUCACUGAGUUCGUCUCUGUGGUCAGAUUCUGUUUCAGAAGCAUUUGAUGCUUCAGAAUUCAACAGAGGAUUGAGCAUCA
B7: chr7:56126341:56126342:+_ENSG00000146731_ENST00000540286|hu_mus|hu_hu_hu_mus_True|18_18 (ssRNA)
RNA: B3 RNA with U69C, A71C, A75G
B8: chr8:104447970:104447971:+_ENSG00000164934_ENST00000297579|hu_hu|hu_hu_hu_mus_False|1_1 (ssRNA)
RNA: GGGAGUUCUACAGUCCGACGAUCAUACACUUCCCUGCUUCGGCUCUUGUCCACAGGAAAGAUUCUAAUAGACUUAUCAAAGCUGGCAGACACAAAUUCCUUCCCAGUGGGAGAGUAGUCCACAUCAAGUACUGCAGAUACAUGCAACAGAGGAUUGAGCAUCA
B9: chr3:150289932:150289933:+_ENSG00000144895_ENST00000460851|hu_mus|motif|central (ssRNA)
RNA: GGGAGUUCUACAGUCCGACGAUCCUUGUAGUUUUUAACAUCCCAUACUUCCAUUUGUCCUCGAAGAUUUCCAAAUCCAGCCAGCACGGAUAUAUGUCCAUGAGGGCUAUAGAAGGCUGCGUUGCGAGGACCAGUCCCAAAGUCCAACAGAGGAUUGAGCAUCA
B10: 134124241_134126239_1698_CDS_ENSG00000145833_ENST00000354283|human|control|control (ssRNA)
RNA: GGGAGUUCUACAGUCCGACGAUCGGGUUCAAAACCCAUGUCAAACAUUCUGUCUGCUUCAUCUAAAACAACAUAUGUCACUCUUCGAAGAUUUGUGACCCGACCACUGUUAGCGGCUAACAUGUCAAUCAUUCGACCAGGUGUCAACAGAGGAUUGAGCAUCA
B11: chr11:77336104:77336105:-_ENSG00000074201_ENST00000525064|hu_mus|hu_hu_hu_mus_False|1_98 (ssRNA)
RNA: GGGAGUUCUACAGUCCGACGAUCCUCACACAUUGCUGUGAACAUUGCCUCCAAUGCUGACUUAUCACUGGGCACAAAUCGAAAUUCAGAAAUGGGUUCAACAUCAUCAUUGUCUUCCUCAUCUUCAUCAGAGAGAGCAGGUUCCAACAGAGGAUUGAGCAUCA
B12: chr1:74301520:74301521:+_ENSMUSG00000006304_ENSMUST00000006467|perfect_dup|FALSE|FALSE (ssRNA)
RNA: GGGAGUUCUACAGUCCGACGAUCGAAGACUACUGUGACUCUGUCCUUUUUAGACUCAACAUACAUGGUCUCAUCAUCCCUAUAAUGGAUAACUGCCCUGUUCUCUCCUUCCUUGCCCUCUUCUUGGAAUUGGAAGUAUUUUUCCAACAGAGGAUUGAGCAUCA
B13: 8533615_8533735_883_3pUTR_ENSMUSG00000047187_ENSMUST00000060232|mouse|control|control (ssRNA)
RNA: GGGAGUUCUACAGUCCGACGAUCAAUAGUUUCAUGUCUCAGCUGAGCAUGAGGAAAGAGGGUGACAGAGUGCGUGGCUCCACUGGGCAGCUAGCCGGUAACACCAGACUCAACAGCAGCCUCCCCCUGCCUGCUGUCCGCCUUCAACAGAGGAUUGAGCAUCA
B14: chr19:45035288:45035289:+_ENSMUSG00000036097_ENSMUST00000096053|mus_mus|FALSE|FALSE (ssRNA)
RNA: GGGAGUUCUACAGUCCGACGAUCAGUCUCCAGAGGAAACAAAGAUCCAAAACCAACGCCCAUGUUGAAGAAUACAGCUGCUAUAUCAGACAAAGAUGGGAUCCAGGGCCAAACUGGAGAGUCACUGAAAGUAUCAUUUCUAAUCAACAGAGGAUUGAGCAUCA

target: T1, UNK ZnF1-3 (human, UniProt Q9C0B0 31-174); assay: nsRBNS (natural sequence RNA bind-n-seq); RBNS binding buffer (assumed for nsRBNS): 25 mM Tris pH 7.5, 150 mM KCl, 3 mM MgCl2, 0.01% Triton X-100, 500 ug/ml BSA, 20 U/ml SUPERase-In, 4 C; UNK is unkempt and MSI1 is Musashi-1; names of the RNAs are library labels; protein concentration not given here; high values mean tight binding
T1 sequence: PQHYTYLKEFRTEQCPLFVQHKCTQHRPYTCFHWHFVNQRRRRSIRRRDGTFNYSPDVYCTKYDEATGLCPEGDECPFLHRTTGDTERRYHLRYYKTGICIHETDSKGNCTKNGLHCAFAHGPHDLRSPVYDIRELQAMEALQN

Binder | binding signal [enrichment R]
B1 | 0.687
B2 | 1.09
B3 | 1.7
B4 | 1.09
B5 | 0.884
B6 | 0.457
B7 | 0.944
B8 | 0.907
B9 | 1
B10 | 0.632
B11 | 0.964
B12 | 0.656
B13 | 1.12
B14 | 1.84
